Test results published in paper PMC9878616 (Protein Science : A Publication of the Protein Society, 2023).

Target: the molecule itself
Test: SEC + other: DLS/SLS

B1: N-terminal GST-like domain of P. berghei tRip (tRip-N) (domain or fragment, UniProt A0A509ARF0 1-202, looked up)
chain: MGCTLNLVENDIKSDILKLALDFIKTNIVENDDNVVFPEIKYGQKISYEHNKKTYKEFFCSLYAIIDTYNCYSQFFCENEDKVSESEEFIFNLASDKFKLKPLDMKHLNDILRERSYIVSDKHASLVDIFYFCCVYKILKPMTAKEKVEYYHICRWYIHLQETLICDFVKLHKLDIRSGVESLLNSGIVTCTNEKASNEQVGS
  stoichiometry N: 2
